The values below come from the supplement of paper PMC4967469.

The IC50 comes from the fitted curve, where viability falls to half of the control; a limit (>, <) means that the fit lies beyond the doses tested. AUC, from the same fit, is the share of area under the viability curve across the 256-fold dose range; the more sensitive the line, the further below 1. Where the top dose is marked as inferred, it was derived from the fitted curves, not read from the paper.

Compound in this assay: CC1=C(C(=O)Nc2cc3cn[nH]c3cc2F)C(c2ccc(C(F)(F)F)cc2)CC(=O)N1 [GSK429286A]
Nature of the assay: Viability of human cancer cell lines after 72 h of drug (GDSC screen). The following applies: top dose inferred. As for the experimental part: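 Human cancer cell lines in 384-well plates, medium with 10% serum, drug for 72 h over a 256-fold dose range (nine 2-fold or five 4-fold steps up to the top dose). Adherent lines were fixed and stained with the nucleic acid dye Syto60, suspension lines read with resazurin; signal relative to control wells, capped at 0 and 100%. One two-parameter sigmoid per drug and line, fitted in a mixed model over all curves with the slope shared within a line.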
In general, IC50 refers to the concentration at which inhibition is half-maximal. Consider “HCC-15 (lung squamous cell carcinoma, adherent, top dose 20 µM)”, for which the AUC was found to be 0.967 and the IC50 is over 20 µM.

Take “HCC-33 (small cell lung carcinoma, adherent, top dose 20 µM)”: the AUC turned out to be 0.931 and the IC50 was over 20 µM.

As to “HCC-44 (lung adenocarcinoma, adherent, top dose 20 µM)”, the AUC was determined as 0.955 and the IC50 is over 20 µM.

Turning to “HCC-56 (large intestine, adherent, top dose 20 µM)”, the AUC stood at 0.987 and the half-inhibitory concentration (IC50) is over 20 µM.

On to “HCC-78 (lung adenocarcinoma, adherent, top dose 20 µM)”, for which the AUC stood at 0.983 and the IC50 is over 20 µM.

Take “HCC-827 (lung adenocarcinoma, adherent, top dose 20 µM)”: the AUC was 0.984 and the IC50 is over 20 µM.

With “HCE-4 (oesophagus, adherent, top dose 20 µM)”, the AUC amounted to 0.986 and the IC50 is over 20 µM.

Regarding “HCT-15 (large intestine, adherent, top dose 20 µM)”, the AUC came to 0.984 and the IC50 was over 20 µM.

Regarding “HCT-116 (large intestine, adherent, top dose 20 µM)”, the AUC was found to be 0.956 and the IC50 is over 20 µM.

As to “HD-MY-Z (Hodgkin lymphoma, adherent, top dose 20 µM)”, the AUC came to 0.945 and the IC50 was over 20 µM.

In the case of “HDLM-2 (Hodgkin lymphoma, suspension, top dose 20 µM)”, the AUC came out at 0.979 and the IC50 is over 20 µM.

On to “HDQ-P1 (breast, adherent, top dose 20 µM)”, for which the AUC came to 0.983 and the half-inhibitory concentration (IC50) was over 20 µM.

“HEC-1 (endometrium, adherent, top dose 20 µM)”: the AUC was 0.989 and the concentration for half-maximal inhibition (IC50) was over 20 µM.

Take “HEL (acute myeloid leukaemia, semi-adherent, top dose 20 µM)”: the AUC came out at 0.953 and the half-maximal inhibitory concentration (IC50) is over 20 µM.

Take “HGC-27 (stomach, adherent, top dose 20 µM)”: the AUC was found to be 0.983 and the IC50 is over 20 µM.

As for “HH (T-cell leukaemia, suspension, top dose 20 µM)”, the AUC was determined as 0.912 and the IC50 is over 20 µM.

On to “HL-60 (acute myeloid leukaemia, suspension, top dose 20 µM)”, for which the AUC stood at 0.896 and the IC50 is over 20 µM.

As to HLE (liver, adherent, top dose 20 µM), the AUC stood at 0.972 and the half-inhibitory concentration (IC50) is over 20 µM.

In the case of “HMV-II (melanoma, adherent, top dose 20 µM)”, the AUC worked out at 0.971 and the IC50 was over 20 µM.

Take “HN (head and neck, adherent, top dose 20 µM)”: the AUC turned out to be 0.979 and the IC50 is over 20 µM.

Take “HO-1-N-1 (head and neck, adherent, top dose 20 µM)”: the AUC came out at 0.986 and the IC50 was over 20 µM.

As for “HO-1-u-1 (head and neck, adherent, top dose 20 µM)”, the AUC turned out to be 0.982 and the IC50 was over 20 µM.

Turning to “HOP-62 (lung adenocarcinoma, adherent, top dose 20 µM)”, the AUC came out at 0.984 and the IC50 was over 20 µM.

Take “HOP-92 (large cell lung carcinoma, adherent, top dose 20 µM)”: the AUC was 0.984 and the IC50 is over 20 µM.

“HOS (osteosarcoma, adherent, top dose 20 µM)”: the AUC is 0.992 and the IC50 is over 20 µM.

Regarding “HPAC (pancreas, adherent, top dose 20 µM)”, the AUC was determined as 0.977 and the IC50 is over 20 µM.

Consider “HPAF-II (pancreas, adherent, top dose 20 µM)”, for which the AUC amounted to 0.981 and the IC50 was over 20 µM.

With “HSC-2 (head and neck, adherent, top dose 20 µM)”, the AUC worked out at 0.984 and the IC50 is over 20 µM.

Take “HSC-3 (head and neck, adherent, top dose 20 µM)”: the AUC is 0.987 and the IC50 was over 20 µM.

Regarding “HSC-4 (head and neck, adherent, top dose 20 µM)”, the AUC was 0.972 and the IC50 is over 20 µM.

As for “HSC-39 (stomach, suspension, top dose 20 µM)”, the AUC is 0.97 and the IC50 is over 20 µM.

In the case of “HT55 (large intestine, adherent, top dose 20 µM)”, the AUC was 0.99 and the IC50 is over 20 µM.

Turning to “HT (B-cell lymphoma, suspension, top dose 20 µM)”, the AUC was 0.975 and the IC50 was over 20 µM.

Regarding HT-3 (cervix, adherent, top dose 20 µM), the AUC is 0.983 and the IC50 was over 20 µM.

In the case of “HT-29 (large intestine, adherent, top dose 20 µM)”, the AUC was 0.982 and the IC50 was over 20 µM.

Consider “HT-115 (large intestine, adherent, top dose 20 µM)”, for which the AUC worked out at 0.973 and the IC50 was over 20 µM.

As to “HT-144 (melanoma, adherent, top dose 20 µM)”, the AUC came to 0.981 and the IC50 was over 20 µM.

“HT-1080 (fibrosarcoma, adherent, top dose 20 µM)”: the AUC is 0.981 and the IC50 was over 20 µM.

Take “HT-1197 (bladder, adherent, top dose 20 µM)”: the AUC came out at 0.985 and the IC50 was over 20 µM.

As for “HT-1376 (bladder, adherent, top dose 20 µM)”, the AUC was 0.985 and the IC50 was over 20 µM.

As for “HTC-C3 (thyroid, adherent, top dose 20 µM)”, the AUC is 0.913 and the IC50 was over 20 µM.

For “HUTU-80 (digestive system, adherent, top dose 20 µM)”, the AUC came to 0.921 and the IC50 is over 20 µM.

With HeLa (cervix, adherent, top dose 20 µM), the AUC worked out at 0.97 and the IC50 is over 20 µM.

Regarding “Hep 3B2_1-7 (liver, adherent, top dose 20 µM)”, the AUC amounted to 0.981 and the IC50 is over 20 µM.

Consider Hey (ovary, adherent, top dose 20 µM), for which the AUC came to 0.979 and the IC50 is over 20 µM.

In the case of “Hs633T (fibrosarcoma, adherent, top dose 20 µM)”, the AUC is 0.936 and the IC50 was over 20 µM.

“Hs683 (glioma, adherent, top dose 20 µM)”: the AUC came out at 0.984 and the IC50 is over 20 µM.

For the cell line “Hs746T (stomach, adherent, top dose 20 µM)”, the AUC was determined as 0.905 and the IC50 is over 20 µM.

Consider “Hs766T (pancreas, adherent, top dose 20 µM)”, for which the AUC was found to be 0.98 and the IC50 was over 20 µM.

“Hs939-T (melanoma, adherent, top dose 20 µM)”: the AUC is 0.986 and the IC50 is over 20 µM.

For the cell line “Hs940-T (melanoma, adherent, top dose 20 µM)”, the AUC stood at 0.89 and the IC50 is over 20 µM.

For “Hs-445 (Hodgkin lymphoma, suspension, top dose 20 µM)”, the AUC was found to be 0.924 and the IC50 was over 20 µM.

On to “Hs-578-T (breast, adherent, top dose 20 µM)”, for which the AUC was 0.983 and the IC50 is over 20 µM.

With “HuCCT1 (biliary tract, adherent, top dose 20 µM)”, the AUC was determined as 0.984 and the IC50 is over 20 µM.

HuH-7 (liver, adherent, top dose 20 µM): the AUC came out at 0.979 and the IC50 is over 20 µM.

As to “HuO9 (osteosarcoma, adherent, top dose 20 µM)”, the AUC was 0.963 and the IC50 is over 20 µM.

In the case of “HuO-3N1 (osteosarcoma, adherent, top dose 20 µM)”, the AUC amounted to 0.928 and the IC50 is over 20 µM.

In the case of “HuP-T3 (pancreas, adherent, top dose 20 µM)”, the AUC was 0.983 and the IC50 is over 20 µM.

As for “HuP-T4 (pancreas, adherent, top dose 20 µM)”, the AUC worked out at 0.938 and the concentration for half-maximal inhibition (IC50) was over 20 µM.

In the case of “IA-LM (large cell lung carcinoma, adherent, top dose 20 µM)”, the AUC turned out to be 0.983 and the 50% inhibitory concentration (IC50) is over 20 µM.

On to “IGR-1 (melanoma, adherent, top dose 20 µM)”, for which the AUC came out at 0.987 and the half-maximal inhibitory concentration (IC50) was over 20 µM.

With “IGR-37 (melanoma, adherent, top dose 20 µM)”, the AUC turned out to be 0.976 and the half-maximal inhibitory concentration (IC50) is over 20 µM.

Regarding “IHH-4 (thyroid, semi-adherent, top dose 20 µM)”, the AUC was 0.993 and the IC50 is over 20 µM.

Turning to “IM-95 (stomach, adherent, top dose 20 µM)”, the AUC was found to be 0.974 and the IC50 was over 20 µM.

Regarding “IMR-5 (neuroblastoma, adherent, top dose 20 µM)”, the AUC was found to be 0.863 and the IC50 worked out at 12.9 µM.

As to “IPC-298 (melanoma, adherent, top dose 20 µM)”, the AUC is 0.984 and the IC50 is over 20 µM.

Regarding “IST-MEL1 (melanoma, adherent, top dose 20 µM)”, the AUC was 0.949 and the IC50 is over 20 µM.

“IST-MES1 (mesothelioma, adherent, top dose 20 µM)”: the AUC is 0.98 and the IC50 is over 20 µM.
